The source of these data is the supplement of paper PMC9446081.

Hit rate of the full screen: of about 39,000 compounds, about 220 (0.56%) showed activity. Some of the results follow.
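Also: static incubation at 37 °C against the wild-type strain, values averaged over two biological replicates.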

The subject of this experiment is Escherichia coli K-12 BW25113. As to the kind of experiment: relative growth (OD600 normalised to plate interquartile mean) (fraction); higher = less growth inhibition, active = 0.2 or less. Particulars: 50 µM; LB; incubation time: overnight (16-24 h).
Take `COc1ccc(NC(=O)Nc2ccc3c(c2)C(=O)N([C@@H](C)CO)C[C@@H](C)[C@@H](CN(C)Cc2ccc4c(c2)OCO4)OCCCC[C@H](C)O3)cc1`: the relative growth is inactive: 1.01.
Take `CCc1oc(CC[C@@H](CO)NC(=O)NCCn2cc(C3(O)CCCCC3)nn2)c(C(=O)OC)c1C(=O)OC`: the relative growth is inactive: 0.985.
As to `C[C@H](CO)N1C[C@H](C)[C@@H](CN(C)C(=O)c2ccncc2)Oc2cc(C#C[C@@H](C)O)ccc2S1(=O)=O`, the relative growth was inactive: 1.02.
`C[C@@H]1CN([C@@H](C)CO)C(=O)Cc2cc(NC(=O)Nc3ccccc3)ccc2O[C@H]1CN(C)Cc1ccc(Cl)c(Cl)c1`: the relative growth was inactive: 0.998.
Consider `C[C@@H]1CN([C@@H](C)CO)C(=O)c2cccc(NC(=O)Nc3ccc(C(F)(F)F)cc3)c2O[C@@H]1CN(C)Cc1ccc(Cl)c(Cl)c1`, for which the relative growth is inactive: 1.03.
With `Cc1noc(C)c1NC(=O)Nc1cccc2c1O[C@H](CN(C)Cc1ccc(Oc3ccccc3)cc1)[C@@H](C)CN([C@H](C)CO)C2=O`, the relative growth is inactive: 1.02.
Turning to `O[C@@H]1[C@@H](O)[C@H](Br)C=C[C@H]1O`, the relative growth was inactive: 0.998.
The value for `C[C@@H]1CN([C@@H](C)CO)S(=O)(=O)c2ccc(C#CC3CC3)cc2O[C@@H]1CN(C)C(=O)Cc1ccncc1` was inactive: 1.01; that for `COc1cccc(NC(=O)N(C)C[C@@H]2Oc3ncc(C#Cc4ccncc4)cc3C(=O)N([C@@H](C)CO)C[C@H]2C)c1` was inactive: 0.99; that for `CCc1nc2ccc(C(=O)N3CCN(S(=O)(=O)CC)CC3)cn2c1N(CC)C(=O)NCCc1ccccc1` was inactive: 0.987.
For `C[C@@H]1CN([C@@H](C)CO)C(=O)c2cc(NC(=O)C3CCCCC3)ccc2O[C@@H](C)CCCCO[C@@H]1CN(C)C(=O)Nc1ccccc1`, the relative growth is inactive: 1.02.
Take `CS(=O)(=O)CCCCN=C=S`: the relative growth was inactive: 0.902.
Next, `C[C@H](CO)N1C[C@H](C)[C@@H](CN(C)Cc2ccc3c(c2)OCO3)OCCCC[C@H](C)Oc2ccc(NS(=O)(=O)c3ccccc3)cc2C1=O`: inactive: 1.04; `CO[C@@H]1CN(C)C(=O)c2cc(NC(=O)C3CC3)ccc2OC[C@H](C)N(C(=O)Cc2ccccn2)C[C@H]1C`: inactive: 1.04; `CC(C)NC(=O)N(C)C[C@@H]1OCCCC[C@@H](C)Oc2ccc(NC(=O)Nc3ccc(C(F)(F)F)cc3)cc2C(=O)N([C@@H](C)CO)C[C@@H]1C`: inactive: 0.999.
Consider `C[C@@H]1CCCCO[C@@H](CN(C)Cc2ccc3c(c2)OCO3)[C@H](C)CN([C@@H](C)CO)C(=O)c2cc(NC(=O)Nc3ccccc3)ccc2O1`, for which the relative growth was inactive: 1.02.
As for `C[C@@H]1CN([C@H](C)CO)C(=O)Cc2cc(NC(=O)CCN3CCOCC3)ccc2O[C@H]1CN(C)S(=O)(=O)c1ccc(Cl)cc1`, the relative growth was inactive: 1.02.
On to `C[C@@H]1CN([C@H](C)CO)C(=O)c2cccc(NC(=O)C3CCOCC3)c2O[C@@H]1CN(C)C(=O)NC1CCCCC1`, for which the relative growth is inactive: 1.02.
Next, `CC(C)C[C@@H]1NC(=O)[C@@H]2C[C@H](C(=O)NCCCC[N+](C)(C)C)[C@H](c3cccc(OCCO)c3)N2C1=O`: inactive: 1.02; `C[C@@H]1CN([C@H](C)CO)C(=O)c2cc(/C=C/c3ccccc3)cnc2O[C@@H]1CN(C)C(=O)C1CCOCC1`: inactive: 0.996; `CC(C)(C)[S@@](=O)N1Cc2cc3nc(-c4cccc(Br)c4)c2[C@H]1CCOC(=O)c1cc2c(c(-c4cccc(Br)c4)n1)[C@@H](CCOC3=O)N([S@](=O)C(C)(C)C)C2`: inactive: 1.02.
`C[C@@H]1CCCCO[C@@H](CN(C)C(=O)Nc2ccccc2)[C@H](C)CN([C@@H](C)CO)C(=O)c2cc(NC(=O)Cc3ccccc3)ccc2O1`: the relative growth is inactive: 1.02.
Regarding `C[C@H](CO)N1C[C@H](C)[C@H](CN(C)Cc2ccc(Cl)c(Cl)c2)Oc2ccc(NS(=O)(=O)c3ccccc3)cc2C1=O`, the relative growth was inactive: 1.03.
Regarding `CO[C@@H]1CN(C)C(=O)c2cc(NC(=O)c3ccccc3)ccc2OC[C@H](C)N(C(=O)CN(C)C)C[C@@H]1C`, the relative growth was inactive: 1.01.
Turning to `C[C@@H]1CN([C@H](C)CO)C(=O)c2cc(N(C)C)ccc2O[C@H]1CN(C)S(=O)(=O)c1ccc(Cl)cc1`, the relative growth is inactive: 1.01.
The value for `COc1cccc(NC(=O)C[C@H]2CC[C@H]3[C@H](COc4ccc(NC(=O)C5CCOCC5)cc4C(=O)N3C)O2)c1` was inactive: 1.01.
Take `COc1cccc(S(=O)(=O)N[C@H]2CC[C@@H](CCn3cc(-c4ccccc4OC)nn3)O[C@@H]2CO)c1`: the relative growth is inactive: 1.01.
Turning to `CCNC(=O)C[C@H]1CC[C@@H](NC(=O)C2CC2)[C@H](CO)O1`, the relative growth was inactive: 1.02.
Consider `Cc1ccc(-c2nn[nH]n2)n1C`, for which the relative growth was inactive: 0.996.
The value for `O=C(N[C@@H]1C=C[C@H](CC(=O)N2CCOCC2)O[C@@H]1CO)c1ccccn1` was inactive: 0.967; that for `COCCNC(=O)C[C@@H]1C[C@H]2c3cc(NC(=O)COC)ccc3O[C@H]2[C@H](CO)O1` was inactive: 0.976.
Regarding `COc1ccc(S(=O)(=O)Nc2ccc3c(c2)C(=O)N([C@@H](C)CO)C[C@@H](C)[C@H](CN(C)C(=O)Nc2ccc4c(c2)OCO4)OCCCC[C@H](C)O3)cc1`, the relative growth was inactive: 1.03.
In the case of `O=C(C[C@@H]1CC[C@@H]2[C@H](COC[C@@H](O)CN2S(=O)(=O)c2cccc(Cl)c2)O1)NCCCN1CCOCC1`, the relative growth is inactive: 1.
As to `C[C@H]1CN([C@@H](C)CO)C(=O)c2cc(C#Cc3cccnc3)cnc2O[C@@H]1CN(C)S(=O)(=O)c1ccccc1F`, the relative growth was inactive: 1.01.
As to `O=C1NCCCc2occc21`, the relative growth was inactive: 0.989.
Take `CN(C)CC(=O)N[C@H]1C=C[C@H](CC(=O)NCCN2CCCCC2)O[C@H]1CO`: the relative growth is inactive: 0.979.
As to `O=C1CC[NH][Zn][O]C(=O)[C@H](Cc2cnc[nH]2)N1`, the relative growth was inactive: 0.988.
`COCCN1CCO[C@H]2CN(S(=O)(=O)c3cn(C)cn3)CC[C@@H]2C1`: the relative growth was inactive: 1.02.
Turning to `COc1ccc(S(=O)(=O)Nc2ccc3c(c2)C(=O)N([C@@H](C)CO)C[C@@H](C)[C@@H](CN(C)C(=O)Nc2c(C)noc2C)O3)cc1`, the relative growth was inactive: 0.934.
For `COc1ccc(NC(=O)N(C)C[C@@H]2Oc3ncc(C#CC(C)C)cc3C(=O)N([C@@H](C)CO)C[C@H]2C)cc1`, the relative growth was inactive: 1.01.
For the compound `C[C@@H]1CN([C@H](C)CO)C(=O)c2cc(NS(=O)(=O)c3ccccc3)ccc2O[C@@H]1CN(C)Cc1ccc(Cl)c(Cl)c1`, the relative growth is inactive: 0.98.
Regarding `CNC[C@H]1Oc2ccc(NS(=O)(=O)c3cn(C)cn3)cc2C(=O)N([C@H](C)CO)C[C@@H]1C`, the relative growth was inactive: 1.01.
Next, `C[C@@H]1CCCCO[C@@H](CN(C)CC2CCCCC2)[C@H](C)CN([C@@H](C)CO)C(=O)c2cc(NC(=O)Nc3ccc(F)cc3)ccc2O1`: inactive: 0.978; `C[C@H](CO)N1C[C@H](C)[C@H](CN(C)C(=O)C2CCCCC2)OCCCC[C@H](C)Oc2ccc(NC(=O)Nc3ccc4c(c3)OCO4)cc2C1=O`: inactive: 1.03.
The value for `C[C@H](CO)N1C[C@H](C)[C@@H](CN(C)S(=O)(=O)c2ccccc2)Oc2ccc(NC(=O)C3CC3)cc2CC1=O` was inactive: 1.
The value for `Cc1ccc(-c2ccc3c(c2)O[C@@H](CN(C)C(=O)Nc2ccc(C(F)(F)F)cc2)[C@H](C)CN([C@H](C)CO)S3(=O)=O)cc1` was inactive: 0.955; that for `C[C@@H]1CCCCO[C@@H](CN(C)C(=O)Nc2ccc3c(c2)OCO3)[C@H](C)CN([C@H](C)CO)C(=O)c2cc(NC(=O)Cc3ccccc3)ccc2O1` was inactive: 1.03.
Consider `COc1cc(Nc2c(C#N)cnc3cc(OCCCN4CCN(C)CC4)c(OC)cc23)c(Cl)cc1Cl`, for which the relative growth was inactive: 0.945.
For `C[C@@H]1CN([C@H](C)CO)S(=O)(=O)c2ccc(C#CCC3CCCC3)cc2O[C@@H]1CN(C)C(=O)c1cnccn1`, the relative growth was inactive: 1.01.
As for `CCC(=O)N[C@H]1CC[C@H](CC(=O)OC)O[C@H]1CO`, the relative growth was inactive: 1.01.
Take `CO[C@H]1[C@H](OC)[C@@H](OC)C[C@@H]2C(=O)O[C@@H](C(=O)O)[C@@H]12`: the relative growth is inactive: 0.982.
As for `CCOC(=O)c1ccc(NC(=O)N[C@H]2O[C@@H](CO)[C@@H](O)[C@@H](O)[C@@H]2O)cc1`, the relative growth is inactive: 0.896.
For the compound `C[C@@H]1CCCCO[C@@H](CN(C)C(=O)c2ccncc2)[C@@H](C)CN([C@@H](C)CO)C(=O)c2cc(NS(=O)(=O)c3ccc(Cl)cc3)ccc2O1`, the relative growth was inactive: 1.
Regarding `COc1ccc(S(=O)(=O)N[C@@H]2C=C[C@@H](CC(=O)N3CCC(Cc4ccccc4)CC3)O[C@H]2CO)cc1`, the relative growth was inactive: 0.994.
As for `CCCN(C)C[C@@H]1OCCCC[C@@H](C)Oc2ccc(NC(=O)Nc3ccc(F)cc3)cc2C(=O)N([C@H](C)CO)C[C@H]1C`, the relative growth was inactive: 0.958.
In the case of `C=CC1(C)CC(=O)C2(O)C(C)(O1)C(OC(C)=O)C(O)C1C(C)(C)CCC(O)C12C` (configuration not stated), the relative growth is inactive: 1.24.
In the case of `COc1ccc(S(=O)(=O)N2C[C@@H](O)COC[C@@H]3O[C@H](CC(=O)N[C@@H]4CCN(Cc5ccccc5)C4)CC[C@H]32)cc1`, the relative growth was inactive: 0.982.
For the compound `COc1ccc(S(=O)(=O)Nc2ccc3c(c2)C(=O)N([C@@H](C)CO)C[C@H](C)[C@H](CN(C)C(=O)NC2CCCCC2)OCCCC[C@H](C)O3)cc1`, the relative growth is inactive: 0.993.
Consider `O=C(O)c1ccnc(C(=O)O)c1`, for which the relative growth is inactive: 0.969.
With `C[C@H](CO)N1C[C@H](C)[C@H](CN(C)Cc2ccc(Oc3ccccc3)cc2)OCc2ccccc2-c2ccccc2C1=O`, the relative growth is inactive: 1.01.
Next, `CO[C@H]1CN(C)C(=O)c2cc(NC(=O)C3CC3)ccc2OC[C@H](C)N(C(=O)C2CCOCC2)C[C@@H]1C`: inactive: 1.01.
Regarding `COc1ccc(S(=O)(=O)N(C)C[C@H]2Oc3c(NS(C)(=O)=O)cccc3C(=O)N([C@H](C)CO)C[C@@H]2C)cc1`, the relative growth is inactive: 1.04.
